Test results from the supplement of paper PMC10670038.
± gives the standard deviation of the averaged measurements. The lowest values were mostly taken out for another list; the other results follow.

These compounds were tested on TE10 (assay: relative cell viability vs DMSO, compound alone (fraction); TE10 is an esophageal squamous carcinoma line; higher = less cytotoxic). Settings: 2 µM; 48 h.
Experimental: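 TE10 ESCC cells (1,000/well, 384-well plates) were treated with Selleck bioactive library compounds at 2 uM alone for 48 h. Viability was read by CellTiter-Glo and expressed relative to DMSO wells. Two technical replicates (A, B).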

SMILES	relative cell viability
COC(=O)C(CCCN=C(N)N)NS(=O)(=O)c1ccc(C)cc1 (stereo not given)	0.856 ± 0.22
Cc1ccc(C(=O)NCCCCCC(=O)Nc2ccccc2N)cc1	0.919 ± 0.052
CN1C2CCC1CC(OC(=O)C(O)c1ccccc1)C2 (stereo not given) [Homatropine Bromide]	1.17 ± 0.075
Cc1ccccc1-n1c(Cn2nc(-c3cccc(O)c3)c3c(N)ncnc32)nc2cccc(C)c2c1=O	1.18 ± 0.052
Cc1nc2c(-c3cnc(N)nc3)nc(N3CCOCC3)nc2n1C(C)C	0.431 ± 0.014
